# ± gives the standard deviation of the averaged measurements. The list shows a part of the results.
# Test system: PfAP2-LT AP2 domain (GST-tagged)
# Assay: gcPBM binding intensity (ln(normalized median fluorescence intensity)); higher = stronger DNA binding
# How it was run: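 For binding intensity, the highest Masliner-normalised natural-log median intensity across replicate spots of either probe orientation was taken. Protein bound to the array was stained with Alexa488 anti-GST antibody and scanned at 488 nm. The protein, GST-tagged P. falciparum DNA-binding domains from E. coli at about 25 μg on average, had been applied for 1 h to an Agilent 4 × 180k array of primer-extended double-stranded 36-bp intergenic genomic probes and negative controls.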
row,Sequence,gcPBM binding intensity (ln)
1,AATTTTTTTTTAATCATGCACACTGTTAAAAGAATA [CACACA_site1240],8.49 ± 0.38
2,AAAAAATAGAATATAAAAATAAAGGAATTAAATTAA [XGTACX_negctrl_site420],8.46 ± 0.87
3,TATATATAAATATATGTGCACTTTTTATATTTATAT,8.82 ± 0.43
4,ATATGGAATAATACGCGTACACACATATATATATTA [XGTACX_site307],9.34 ± 0.3
5,TTTATATCATTACAAGTGCATATCATCATAAATTCT [GTGCAC_site9878],8.63 ± 0.48
6,TCTTGATTATATAGTACTACACATTATAAAAAAATT [XGTACX_site2465],8.53 ± 0.48
7,TGTTATTATAACATTTTTTTCAAAATAGCTTTAGAA [CACACA_negctrl_site266],8.01 ± 0.35
8,AATTTATAAGAATAAAGTACTAAAGATACAACTTTA [XGTACX_site7153],8.34 ± 0.44
9,ATAATACCCAAGCACACACACACACCGATATATATA [CACACA_site8344],10.4 ± 0.2
10,ATTAAAGGAAGCAAAACATGCAACAGCAATATTGCA [TGCATGCA_site452],8.71 ± 0.4
11,TTCCTTTTTTTTTATTGTACAAAAATATCAAAAAGG [XGTACX_site8505],8.22 ± 0.28
12,ATTTTTTTTTTTTTTTTGGGGGGGTATACTTTTAAA [CACACA_negctrl_site1020],10.6 ± 0.2
13,TAAAAATAGGAATACGCACACGATGATTAATTTATA [CACACA_site1835],8.93 ± 0.41
14,ATAGAATAAATTTTGTCATTTATTCCTTATATATAA [GTGCAC_negctrl_site227],8.49 ± 0.41
15,AATTATATAACAAATTGTACGAATGAAAATATTATT [XGTACX_site4237],8.76 ± 0.4
16,TTTATATATATTTATACACACAAACATAATACTACT [CACACA_site5161],8.95 ± 0.47
17,TATAATGAGGATGATAGTACGTATTAGTATAAAAAA [XGTACX_site6623],8.88 ± 0.45
18,TTTTTAATTTTATATACACACATAAAATATATGAAG [CACACA_site3145],8.55 ± 0.4
19,ATATATTGGAGCACAACACACACAAGTATATATATG [CACACA_site8435],9.55 ± 0.33
20,ACTACATAATACTATTCACACATTTTTTTTTTTTTT [CACACA_site5794],8.81 ± 0.49
21,AAAAAAAAAAAAAAAACATGCACAAATTATAAGTGA [TGCATGCA_site378],8.7 ± 0.49
22,AAAAAAAAAAAAAACACACAGAACAATATATAAATA [CACACA_site982],8.98 ± 0.41

row,Sequence,gcPBM binding intensity (ln)
1,AAAAAAAAATACAAAATAGCAATAAATACACAAACG [GTGCAC_negctrl_site707],9.2 ± 0.42
2,ATATAAATTATTTACACACAAACATTTATACTTTTA [CACACA_site3448],8.84 ± 0.4
3,TTTTGTTACGGCAAGGAAGTTAAGCATAAATGAATG [GTGCAC_negctrl_site173],8.6 ± 0.46
4,CAGGCGTGAAATATACGTACACACATTATTTATATT [XGTACX_site5337],9.1 ± 0.45
5,ATATAAGTGTATCTAACACACAAATATGTAAAAATG [CACACA_site7006],9.26 ± 0.54
6,ATATATCTACTGTGTTGTACTGTTAATATTTGAATA [XGTACX_site1931],8.91 ± 0.38
7,TATATACACATATATACACACACATATATATATATA [CACACA_site9127],9.73 ± 0.12
8,AAGAAAAAAAATATATATGTATATATTATTTTAACA [TGCATGCA_negctrl_site534],8.44 ± 0.44
9,ATATTTTTTGCTATTACACACAAGGGATTATTATTT [CACACA_site7776],9.16 ± 0.47
10,TAATAATAGTCTAATACATGCATCGATAACGGAACT [TGCATGCA_site98],8.82 ± 0.32
11,ATGTTAATAACTTGTGGTACTGTTATAATTTAGTAA [XGTACX_site2114],8.68 ± 0.39
12,TTTTTATTTTTAAAGGCACACACATTTTTATTTTTA [CACACA_site8624],8.95 ± 0.48
13,AATAAATAAATAATATAATGAAATTATAAAATGTGG [TGCATGCA_negctrl_site385],8.76 ± 0.61
14,TATTTGTGCCAAAAATGAAAAAGTTTGTATAAAACC [CACACA_negctrl_site1406],8.55 ± 0.47
15,AAATGAAATTTGTATACACACAAATATATTTATATA [CACACA_site6525],8.79 ± 0.42
16,TATATATATATATACACACACACCCTAAAAATATAT [CACACA_site1611],9.765 ± 0.021
17,AAAATTACTATATGAACACACATGATTAGATATATG [CACACA_site3083],8.95 ± 0.41
18,TGAAAGAATTAATTTTGTACATATAAAAATTTTATT [XGTACX_site8500],8.34 ± 0.46
19,AAAAAAAAAAAATATACACACACATATATATATATA [CACACA_site9123],9.84 ± 0.3
20,AACAACAATTTCGTCATACACACATTCAGAATATAT [CACACA_site2371],9.1 ± 0.35
21,AATGATCATAAATACACACACACAAAAAAAAAAAAA [CACACA_site6072],9.7 ± 0.47
22,TATTAAAAAAATGTATGTACATATATAAATTTTTTT [XGTACX_site1094],8.4 ± 0.48
